Target: T1, recombinantly expressed purified soluble WNV E protein (truncated form, strain 382-99) (West Nile virus strain 382-99, UniProt Q9Q6P4 291-696)
T1 construct: also called recombinant WNV-E protein; truncated E protein
T1 sequence: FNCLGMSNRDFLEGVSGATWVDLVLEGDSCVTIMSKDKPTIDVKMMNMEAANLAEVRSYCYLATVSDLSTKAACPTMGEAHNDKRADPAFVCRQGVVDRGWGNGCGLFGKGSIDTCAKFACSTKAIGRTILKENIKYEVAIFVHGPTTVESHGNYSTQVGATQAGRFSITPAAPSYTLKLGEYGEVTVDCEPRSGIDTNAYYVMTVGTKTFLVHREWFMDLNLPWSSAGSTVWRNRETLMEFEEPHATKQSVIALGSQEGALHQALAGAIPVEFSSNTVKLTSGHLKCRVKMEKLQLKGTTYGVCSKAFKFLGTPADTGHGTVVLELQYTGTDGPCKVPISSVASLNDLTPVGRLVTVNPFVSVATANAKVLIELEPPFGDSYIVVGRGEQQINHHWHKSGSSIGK
Experiment: phage ELISA on coated recombinant soluble WNV E protein

B1: SC04-274 (scFv)
scFv: QVQLVQSGAEVKKPGESLKISCKGSGYSFTSYWIGWVRQMPGKGLEWMGIIYPGDSDTRYSPSFQGQVTISADRSISTAYLQWSSLKASDTAMYYCARLRGPYYDFWNGYRETHDAFNVWGQGTTVTVSSGTGGSGGTGSGTGGS[skipping about 100 residues]FGGGTKVEIKR
  OD 492 nm: 0.496 OD

Source: patent US7537764
